Measured values from a collection of fitness landscapes (doi:10.1126/science.1257360).
Some of the results follow.

B1: PhoQ; a variant is named by its letters at X, in order, P23837 (parent)
chain: MKKLLRLFFPLSLRVRFLLATAAVVLVLSLAYGMVALIGYSVSFDKTTFRLLRGESNLFYTLAKWENNKLHVELPENIDKQSPTMTLIYDENGQLLWAQRDVPWLMKMIQPDWLKSNGFHEIEADVNDTSLLLSGDHSIQQQLQEVREDDDDAEMTHSVAVNVYPATSRMPKLTIVVVDTIPVELKSSYMVWSWFIYVLSANLLLVIPLLWVAAWWSLRPIEALAKEVRELEEHNRELLNPATTRELTSLVRNLNRLLKSERERYDKYRTTLTDLTHSLKTPLXXLQXXLRSLRSEKMSVSDAEPVMLEQISRISQQIGYYLHRASMRGGTLLSRELHPVAPLLDNLTSALNKVYQRKGVNISLDISPEISFVGEQNDFVEVMGNVLDNACKYCLEFVEISARQTDEHLYIVVEDDGPGIPLSKREVIFDRGQRVDTLRPGQGVGLAVAREITEQYEGKIVAGESMLGGARMEVIFGRQHSAPKDE

Variants of: B1
Test: enrichment ratio after two sorts for PhoP signalling (ratio (wild type AVST 3.29)); higher = more functional
Conditions: with PhoP (E. coli)

Variant | enrichment ratio
LNAI | ≤ 0.25
MGFD | ≤ 0.25
KFDK | ≤ 0.25
IILH | ≤ 0.25
YGAY | ≤ 0.25
LFRP | ≤ 0.25
HQST | ≤ 0.25
HWDM | ≤ 0.25
VSAN | ≤ 0.25
YWML | ≤ 0.25
YIIG | ≤ 0.25
YFHP | ≤ 0.25
NHRR | ≤ 0.25
TINW | ≤ 0.25
GLTV | 5.07
LAAG | ≤ 0.25
PLEI | ≤ 0.25
WRSL | ≤ 0.25
GHTP | ≤ 0.25
ERHR | ≤ 0.25
TPTT | ≤ 0.25
QFNG | ≤ 0.25
NRAG | ≤ 0.25
SIFR | 1.77
EYSC | ≤ 0.25

Variant | enrichment ratio
VTLS | 5.55
GDKL | ≤ 0.25
GENQ | ≤ 0.25
NCKD | ≤ 0.25
YNIG | ≤ 0.25
FCMM | 8.52
VIDP | ≤ 0.25
TNQE | ≤ 0.25
EPWM | ≤ 0.25
HTIR | ≤ 0.25
HDML | ≤ 0.25
WRLH | ≤ 0.25
SDTW | ≤ 0.25
AHWV | ≤ 0.25
YTMN | ≤ 0.25
FVAL | ≤ 0.25
LRWS | ≤ 0.25
VQQP | ≤ 0.25
SMLA | 6.54
MFRT | ≤ 0.25
YDHF | ≤ 0.25
FEHM | ≤ 0.25
MYGD | ≤ 0.25
FWYE | ≤ 0.25
NSGK | ≤ 0.25

Variant | enrichment ratio
KDPP | ≤ 0.25
GGLE | ≤ 0.25
KAIC | ≤ 0.25
ECNF | ≤ 0.25
PMWW | ≤ 0.25
YVVG | ≤ 0.25
PFWH | ≤ 0.25
NTCW | ≤ 0.25
EFWV | ≤ 0.25
PIQR | ≤ 0.25
GNYP | ≤ 0.25
FIYA | ≤ 0.25
MVAF | 8.08
IGPF | ≤ 0.25
AEFN | ≤ 0.25
DAAK | ≤ 0.25
FSFM | ≤ 0.25
FTMM | 12.1
ADHI | ≤ 0.25
TRKQ | ≤ 0.25
GVGM | ≤ 0.25
FCER | ≤ 0.25
DVAL | ≤ 0.25
IAPM | ≤ 0.25
WTDW | ≤ 0.25

Variant | enrichment ratio
KHRW | ≤ 0.25
MITC | ≤ 0.25
PSIP | ≤ 0.25
VNPD | ≤ 0.25
TCNA | 9.43
HNFQ | ≤ 0.25
IADK | ≤ 0.25
SVVM | 0.559
DMIE | ≤ 0.25
AYHY | ≤ 0.25
SRQG | ≤ 0.25
IYLS | ≤ 0.25
VPWN | ≤ 0.25
SLGP | ≤ 0.25
PLQR | ≤ 0.25
PGNH | ≤ 0.25
KECP | ≤ 0.25
IDAP | ≤ 0.25
KPLC | ≤ 0.25
LIKW | ≤ 0.25
SDIT | ≤ 0.25
NHTV | ≤ 0.25
NRCA | ≤ 0.25
ELPD | ≤ 0.25
IVIL | ≤ 0.25

Variant | enrichment ratio
EFER | ≤ 0.25
RGRT | ≤ 0.25
FWQD | ≤ 0.25
RKEM | ≤ 0.25
YRIV | ≤ 0.25
PMQS | ≤ 0.25
GKFR | ≤ 0.25
TYWM | ≤ 0.25
KQRS | ≤ 0.25
HRIQ | ≤ 0.25
NCLF | ≤ 0.25
LQRR | ≤ 0.25
PMMD | ≤ 0.25
RQWM | ≤ 0.25
WHLP | ≤ 0.25
PHPQ | ≤ 0.25
VSRP | ≤ 0.25
ISSA | ≤ 0.25
RLTS | ≤ 0.25
LECC | 0.75
NCGP | ≤ 0.25
TQVW | ≤ 0.25
ALIY | ≤ 0.25
ANSY | 9.49
YEDQ | ≤ 0.25

Variant | enrichment ratio
DWFH | ≤ 0.25
WNLW | ≤ 0.25
GQDQ | ≤ 0.25
EEEC | ≤ 0.25
FIWL | ≤ 0.25
YWIR | ≤ 0.25
IVIN | ≤ 0.25
GQQH | 2.74
YWRT | ≤ 0.25
FYCD | ≤ 0.25
MLVI | ≤ 0.25
DQTK | 8.07
PIAE | ≤ 0.25
PWTC | ≤ 0.25
SHKG | ≤ 0.25
REPQ | ≤ 0.25
WTAY | ≤ 0.25
LFGK | ≤ 0.25
PPGG | ≤ 0.25
NMVV | ≤ 0.25
IGFI | ≤ 0.25
DWTR | ≤ 0.25
HLCY | ≤ 0.25
GFVC | ≤ 0.25
LMGR | ≤ 0.25

Variant | enrichment ratio
GQVP | ≤ 0.25
HRSG | ≤ 0.25
EMWP | ≤ 0.25
PGQV | ≤ 0.25
HTAQ | ≤ 0.25
GQMD | ≤ 0.25
IDCN | ≤ 0.25
NDWR | ≤ 0.25
IWGG | ≤ 0.25
RCIV | ≤ 0.25
RLFG | ≤ 0.25
SAWV | ≤ 0.25
ILYY | ≤ 0.25
KDHS | ≤ 0.25
GQFT | ≤ 0.25
VYVW | ≤ 0.25
QSRV | ≤ 0.25
KNWI | ≤ 0.25
VPTL | ≤ 0.25
AFHG | ≤ 0.25
DATC | ≤ 0.25
IMNC | ≤ 0.25
TYTE | ≤ 0.25
QHIK | ≤ 0.25
NIIV | ≤ 0.25

Variant | enrichment ratio
AFCI | ≤ 0.25
VGDM | ≤ 0.25
FFMP | ≤ 0.25
ICNW | ≤ 0.25
PPCC | ≤ 0.25
SHAH | 5.87
HWYF | ≤ 0.25
FHSH | ≤ 0.25
PGDY | ≤ 0.25
FLMW | ≤ 0.25
NPIM | ≤ 0.25
VTIW | ≤ 0.25
HITC | ≤ 0.25
VEVA | ≤ 0.25
FDES | ≤ 0.25
MMVT | ≤ 0.25
SDAP | ≤ 0.25
YIAI | 0.393
VGEL | ≤ 0.25
RLFK | ≤ 0.25
